Data on 21 compounds can be found in the supplement of paper PMC9938546.

Counter-ions that a name gives are not always drawn. This is one part of the list. Many values rest on one well or one pass, so single values are uncertain.
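Also: viability estimated indirectly by image-based GFP quantification with live-cell imaging of the constitutively GFP-expressing human colorectal cancer line, no immune cells added.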

This assay concerns HCT116-GFP. Kind of assay: HCT116-GFP viability (GFP intensity) relative to untreated control, monoculture; higher = less cancer cell killing. Conditions: culture: HCT116-GFP monoculture; 10 µM; 72 h.
Take `COc1cc2c(cc1OC)C(=O)C(CC1CCN(Cc3ccccc3)CC1)C2` (stereo unspecified) [Donepezil hydrochloride]: the HCT116-GFP viability worked out at 102%.

For the compound `COc1cc(C(=O)NC2CCCNC2)cc(OC)c1OC` (stereo unspecified) [Troxipide], the HCT116-GFP viability came to 88.4%.

Turning to `C[C@]12CC[C@@H]3c4ccc(O)cc4CC[C@H]3[C@@H]1CCC2=O` [Estrone], the HCT116-GFP viability is 98.9%.

As for `CC(=O)N(CC(C)C(=O)O)c1c(I)cc(I)c(N)c1I` (stereo unspecified) [Iocetamic acid], the HCT116-GFP viability came out at 107%.

For the compound `CN(C)[C@@H]1C(O)=C(C(N)=O)C(=O)[C@@]2(O)C(O)=C3C(=O)c4c(O)ccc(Cl)c4[C@@](C)(O)[C@H]3C[C@@H]12` [Chlortetracycline hydrochloride], the HCT116-GFP viability was 92.5%.

`Cc1cccc(CN2CCN(C(c3ccccc3)c3ccc(Cl)cc3)CC2)c1` (stereo unspecified) [Meclozine dihydrochloride]: the HCT116-GFP viability worked out at 96.4%.

As for `COc1cnc(NS(=O)(=O)c2ccc(N)cc2)nc1` [Sulfameter], the HCT116-GFP viability turned out to be 111%.

In the case of `O=C(O)CCC(=O)Nc1ccc(S(=O)(=O)Nc2nccs2)cc1` [Succinylsulfathiazole], the HCT116-GFP viability turned out to be 86.2%.

With `COc1ccccc1O` [Guaiacol], the HCT116-GFP viability stood at 101%.

For `CCCCC(C)(O)C/C=C/[C@H]1[C@H](O)CC(=O)[C@@H]1CCCCCCC(=O)OC` (mixture of isomers) [Misoprostol], the HCT116-GFP viability was 91.8%.

As for `CNCCC(Oc1ccccc1OC)c1ccccc1` (stereo unspecified) [Nisoxetine hydrochloride], the HCT116-GFP viability stood at 101%.

`CCOC(=O)C1=C[C@]2(CC)CCCN3CCc4c(n1c1ccccc41)[C@@H]32` [Vinpocetine]: the HCT116-GFP viability came to 95.9%.

`COc1ccc(-c2cc(=O)c3c(O)cc(O[C@@H]4O[C@H](CO[C@@H]5O[C@@H](C)[C@H](O)[C@@H](O)[C@H]5O)[C@@H](O)[C@H](O)[C@H]4O)cc3o2)cc1O` [Diosmin]: the HCT116-GFP viability came out at 91.9%.

`CCCCCCCN(CC)CCCC(O)c1ccc(NS(C)(=O)=O)cc1` (stereo unspecified) [Ibutilide fumarate]: the HCT116-GFP viability is 105%.

With `c1ccc2[nH]c(-c3cscn3)nc2c1` [Tiabendazole], the HCT116-GFP viability was determined as 95%.

In the case of `CC1CS(=O)(=O)CCN1/N=C/c1ccc([N+](=O)[O-])o1` (stereo unspecified) [Nifurtimox], the HCT116-GFP viability is 74.6%.

Turning to `CN1CC2c3ccccc3Oc3ccc(Cl)cc3C2C1` (stereo unspecified) [Asenapine maleate], the HCT116-GFP viability is 92.8%.

Regarding `O=C(O)Cc1sc(-c2ccccc2)nc1-c1ccc(Cl)cc1` [Fentiazac], the HCT116-GFP viability worked out at 93.3%.

As to `CC(=O)OCC(=O)[C@@]12N=C(C)O[C@@H]1C[C@H]1[C@@H]3CCC4=CC(=O)C=C[C@]4(C)[C@H]3[C@@H](O)C[C@@]12C` [Deflazacort], the HCT116-GFP viability came out at 116%.

For the compound `OCc1cc(C(O)CNCCCCCCOCCCCc2ccccc2)ccc1O` (stereo unspecified) [Salmeterol], the HCT116-GFP viability came out at 85.4%.

For the compound `CC(=O)Nc1ccc(CC(=O)O)cc1` [Actarit], the HCT116-GFP viability was 91.1%.
